# Reference: PubChem BioAssay (NCATS)
# Where “and” joins values, the source holds several entries; their conditions need not be identical. Equal entries are not always repeated. This list was built around the results that the source calls inconclusive (neither active nor inactive); the mix of calls is not that of the screen. Potencies beside an inconclusive call are fits to weak or partial responses and may not hold up. For some of these results: A note “side channel” means that the fit belongs to a control or component signal, not to the main read-out. Calls of active or inactive are those of the source. Unless noted, calls follow the shape of the dose curve; as a rule, active = well fitted inhibition curve with a large enough effect; inconclusive = small, poorly fitted or top-dose-only effect; inactive = no such curve, though single readings can be large or run the other way.
# Assays:
# [1] = target: Cytochrome P450 2C9 (Homo sapiens) (UniProt P11712); assay: qHTS Assay for Inhibitors and Substrates of Cytochrome P450 2C9 (AID 883); also: nearly all actives have a fitted effect of over 60% in size; as to activity change, negative = inhibition: % is scaled to controls: 0 for no effect and ±100 for the full control effect
# Method in brief: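 Human CYP2C9 (10nM) hydroxylated Luciferin-H (100uM, at its KM) to luciferin in 25mM KPO4. Compound was preincubated 10 min at 37C, then NADPH regeneration started a 60 min reaction at 37C. Luminescence was read after detection reagent, normalized to 57uM sulphaphenazole.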
# [2] = target: Cytochrome P450 2D6 (Homo sapiens) (UniProt P10635); assay: qHTS Assay for Inhibitors and Substrates of Cytochrome P450 2D6 (AID 891);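 also: luciferin methyl ether substrate demethylated by CYP2D6 with NADPH regeneration; nearly all actives have a fitted effect of over 60% in size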; as to activity change, negative = inhibition: top concentration of the series differs between compounds; % is scaled to controls: 0 for no effect and ±100 for the full control effect
# Method in brief: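 Luminescent read-out of luciferin formed by 5 nM human CYP2D6 demethylating 30 uM Luciferin-ME EGE (Km level) over 60 min at room temperature after NADPH regeneration addition. Data normalized to full inhibition by 1.43 uM quinidine.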
# [3] = qHTS Assay for Identification of Small Molecule Antagonists for NFkB Signaling Pathway (AID 895; active = well fitted inhibition curve with a large enough effect in the signal ratio, with a control signal flat, not every such curve was filed as active; inconclusive = small, poorly fitted or top-dose-only effect, or effect the other way, or a change in a side signal; the % refers to the signal ratio; as to activity change, negative = inhibition: % is scaled to controls: 0 for no effect and ±100 for the full control effect); conditions: NFkB beta-lactamase reporter cells, FRET ratio 460/530, stimulated with 10 pM TNF alpha; activity change, negative = inhibition: at 38.3 µM (top of the series)
# Method in brief: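 NFkB-bla ME-180 cervical carcinoma cells with beta-lactamase reporter under NFkB response element; compounds added, then TNF alpha at 10 pM final (EC50), 5 h at 37 C. LiveBLAzer substrate 2 h, room temperature; emission 460/530 nm at 405 nm excitation.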
# [4] = target: 3',5'-cyclic-AMP phosphodiesterase 4B (Homo sapiens) (UniProt Q07343); assay: qHTS Assay for Inhibitors of PDE-IV (AID 607; active = well fitted activation curve with a large enough effect in the main read-out, with a control signal flat, not every such curve was filed as active; inconclusive = small, poorly fitted or top-dose-only effect, or effect the other way, or a change in a side signal)
# Method in brief: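 HEK293 ACTOne cells with CNG channel (1000/well), endogenous PDE4; membrane potential dye, compounds up to 22.9 uM final. Fluorescence Ex 535/Em 590; RO 20-1724 (100 uM final) as reference.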
# [5] = target: Cytochrome P450 3A4 (Homo sapiens) (UniProt P08684); assay: qHTS Assay for Inhibitors and Substrates of Cytochrome P450 3A4 (AID 884); also: nearly all actives have a fitted effect of over 50% in size; as to activity change, negative = inhibition: % is scaled to controls: 0 for no effect and ±100 for the full control effect
# Method in brief: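 Luminescent readout of luciferin produced by CYP3A4 (20 nM) dealkylation of Luciferin-PPXE, 25 uM (its KM). NADPH-driven reaction ran 60 min at RT after 10 min compound preincubation; data scaled to 57 uM ketoconazole as 100% inhibition.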
# Potency is read from the fitted curve at half-maximal effect; tags tell the direction and shape of the fitted curve or compound fluorescence and quenching.
# Chain of UniProt P10635 (P10635 whole entry, looked up): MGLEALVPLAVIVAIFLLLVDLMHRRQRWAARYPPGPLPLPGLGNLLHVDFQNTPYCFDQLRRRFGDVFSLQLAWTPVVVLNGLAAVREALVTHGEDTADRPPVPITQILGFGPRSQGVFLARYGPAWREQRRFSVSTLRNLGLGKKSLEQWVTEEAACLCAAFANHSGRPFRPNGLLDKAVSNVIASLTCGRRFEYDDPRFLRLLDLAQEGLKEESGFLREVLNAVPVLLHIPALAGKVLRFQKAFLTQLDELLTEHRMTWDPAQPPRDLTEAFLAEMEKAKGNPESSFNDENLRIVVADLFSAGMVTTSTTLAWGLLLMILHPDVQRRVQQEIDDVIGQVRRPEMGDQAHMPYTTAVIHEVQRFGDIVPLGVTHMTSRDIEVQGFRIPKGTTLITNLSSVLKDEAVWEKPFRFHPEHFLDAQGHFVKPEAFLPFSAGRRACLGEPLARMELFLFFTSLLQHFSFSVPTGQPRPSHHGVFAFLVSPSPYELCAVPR
# Chain of UniProt P11712 (P11712 whole entry, looked up): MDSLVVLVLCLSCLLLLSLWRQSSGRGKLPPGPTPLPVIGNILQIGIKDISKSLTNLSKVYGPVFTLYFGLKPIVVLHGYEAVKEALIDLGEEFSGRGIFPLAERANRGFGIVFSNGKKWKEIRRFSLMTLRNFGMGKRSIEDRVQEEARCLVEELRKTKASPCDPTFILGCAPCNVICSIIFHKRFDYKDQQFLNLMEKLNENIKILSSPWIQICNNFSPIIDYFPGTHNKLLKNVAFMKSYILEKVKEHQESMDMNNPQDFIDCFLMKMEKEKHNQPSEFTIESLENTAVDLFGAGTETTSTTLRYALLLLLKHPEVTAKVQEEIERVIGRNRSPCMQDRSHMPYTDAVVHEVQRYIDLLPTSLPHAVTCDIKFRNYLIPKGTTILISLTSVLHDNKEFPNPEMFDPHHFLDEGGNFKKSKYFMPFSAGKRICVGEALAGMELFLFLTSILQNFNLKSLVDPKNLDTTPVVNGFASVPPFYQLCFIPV
# Chain of UniProt P08684 (P08684 whole entry, looked up): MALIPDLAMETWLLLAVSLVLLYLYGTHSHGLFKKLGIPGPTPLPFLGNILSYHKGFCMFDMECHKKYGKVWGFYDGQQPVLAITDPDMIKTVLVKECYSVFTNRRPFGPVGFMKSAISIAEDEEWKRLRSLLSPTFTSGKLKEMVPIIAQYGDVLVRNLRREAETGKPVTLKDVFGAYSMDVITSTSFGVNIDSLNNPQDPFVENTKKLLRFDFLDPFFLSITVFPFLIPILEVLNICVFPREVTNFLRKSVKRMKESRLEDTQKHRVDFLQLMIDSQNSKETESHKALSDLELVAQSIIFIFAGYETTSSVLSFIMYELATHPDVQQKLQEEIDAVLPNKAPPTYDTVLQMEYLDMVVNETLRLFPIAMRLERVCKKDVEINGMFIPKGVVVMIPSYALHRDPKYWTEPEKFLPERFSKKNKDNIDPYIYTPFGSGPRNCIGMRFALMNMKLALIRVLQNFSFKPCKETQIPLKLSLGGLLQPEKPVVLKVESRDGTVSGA
# Chain of UniProt Q07343 (Q07343 whole entry, looked up): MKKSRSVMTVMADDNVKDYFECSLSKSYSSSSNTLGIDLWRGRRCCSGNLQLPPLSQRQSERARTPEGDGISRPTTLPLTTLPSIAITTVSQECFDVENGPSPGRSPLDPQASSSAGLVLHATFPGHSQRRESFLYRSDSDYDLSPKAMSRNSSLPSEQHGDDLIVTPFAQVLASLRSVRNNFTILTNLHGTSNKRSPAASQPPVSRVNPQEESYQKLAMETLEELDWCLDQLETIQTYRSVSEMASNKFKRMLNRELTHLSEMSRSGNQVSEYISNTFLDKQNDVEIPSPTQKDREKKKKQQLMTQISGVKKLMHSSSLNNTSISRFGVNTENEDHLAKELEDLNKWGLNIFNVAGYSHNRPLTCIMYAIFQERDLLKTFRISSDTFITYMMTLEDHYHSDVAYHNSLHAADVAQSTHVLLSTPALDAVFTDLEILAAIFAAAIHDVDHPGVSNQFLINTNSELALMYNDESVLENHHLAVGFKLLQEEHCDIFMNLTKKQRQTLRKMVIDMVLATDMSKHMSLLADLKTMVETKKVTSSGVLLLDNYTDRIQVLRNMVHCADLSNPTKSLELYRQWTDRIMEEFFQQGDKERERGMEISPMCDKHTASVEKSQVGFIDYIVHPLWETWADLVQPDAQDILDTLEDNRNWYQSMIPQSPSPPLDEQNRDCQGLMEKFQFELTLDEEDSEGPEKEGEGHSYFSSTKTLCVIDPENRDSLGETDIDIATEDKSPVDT
smiles,measurement,setting,value
CS(=O)(=O)Nc1ccc([N+](=O)[O-])cc1Oc1ccccc1,Potency,[1],active: 10 µM and active: 3.16 µM
same,Potency,[2],inactive
same,Potency,[3],inactive
CN(C)CCCN1c2ccccc2CCc2ccc(Cl)cc21,Potency,[4],"inconclusive: 9.51 µM [activator, partial curve] and inconclusive: 15.1 µM [activator, partial curve]"
same,Potency,[3],inactive
NC(=O)c1cnccn1,Potency,[5],inactive
same,"activity change, negative = inhibition",[3],inconclusive: -25.7%
NC(=NCc1ccccc1)NC(=O)c1nc(Cl)c(N)nc1N,Potency,[2],active: 5.01 µM
same,Potency,[3],"inconclusive: 0.631 µM [inhibitor, full curve, poor fit]"
Cc1cc2nc3c(=O)[nH]c(=O)nc-3n(CC(O)C(O)C(O)CO)c2cc1C (configuration not stated),Potency,[4],"inconclusive: 19 µM [inhibitor, partial curve, poor fit]"
same,Potency,[1],inactive
COc1ccc2c(c1OC)C(=O)OC2[C@H]1c2c(cc3c(c2OC)OCO3)CCN1C (some centres not stated),"activity change, negative = inhibition",[3],inconclusive: -25.7%
CN(C)CCC=C1c2ccccc2C=Cc2ccccc21,Potency,[4],"inconclusive: 9.51 µM [rising, partial curve]"
same,Potency,[2],"inconclusive: 3.98 µM [inhibitor, partial curve]"
same,"activity change, negative = inhibition",[3],inconclusive: -2.43%
CCOC(=O)c1ncn2c1CN(C)C(=O)c1cc(F)ccc1-2,Potency,[1],inactive
same,"activity change, negative = inhibition",[3],inconclusive: -30.9%
CN(C)c1ccccc1CN1CCCN(Cc2ccccc2N(C)C)C1c1ccncc1,Potency,[5],"inconclusive: 3.16 µM [inhibitor, single point]"
Cc1cc(C(C)(C)C)cc(C)c1CC1=NCCN1,Potency,[4],"inconclusive: 15.1 µM [activator, partial curve]"
same,Potency,[2],active: 3.98 µM
CCCOc1ccc(C(=O)OCCN(CC)CC)cc1N,Potency,[2],"inconclusive: 6.31 µM [inhibitor, full curve]"
N[C@@H](Cc1ccc(O)c(O)c1)C(=O)O,Potency,[4],inactive
same,Potency,[3],inactive
CC1=CC(=O)c2ccccc2C1=O,Potency,[1],"inconclusive: 6.31 µM [inhibitor, full curve, poor fit]"
same,Potency,[2],active: 7.94 µM
CN1C(C(=O)Nc2ccccn2)=C(O)c2sccc2S1(=O)=O,Potency,[1],"inconclusive: 2.51 µM [inhibitor, partial curve, poor fit]"
same,Potency,[5],inactive
CC(NCCc1ccc(O)cc1)C(O)c1ccc(O)cc1 (configuration not stated),Potency,[5],inactive
Cc1cnc(NC(=O)C2=C(O)c3ccccc3S(=O)(=O)N2C)s1,Potency,[3],inactive
NS(=O)(=O)c1cc2c(cc1Cl)NC=NS2(=O)=O,Potency,[3],"inconclusive: 3.98 µM [activator, single point]"
Cc1ccc(S(=O)(=O)N[C@@H](Cc2ccccc2)C(=O)CCl)cc1,Potency,[4],"inconclusive: 12.6 µM [activator, partial curve]"
same,Potency,[3],"inconclusive: 3.16 µM [side channel, rising, full curve]"
Clc1cccc(Cl)c1NC1=NCCN1,Potency,[2],"inconclusive: 7.94 µM [inhibitor, partial curve]"
NCCCCNCCCN,Potency,[3],inactive
Nc1nc2c(ncn2COC(CO)CO)c(=O)[nH]1,Potency,[4],inactive
same,Potency,[3],"inconclusive: 10 µM [inhibitor, single point]"
CN(C)c1nc(N(C)C)nc(N(C)C)n1,Potency,[3],inactive
